# This is one part of the list. These are noisy estimates, calculated here from bound and input reads.
# Biological target: T1, Pho4 (S. cerevisiae) (UniProt P07270)
# T1 sequence: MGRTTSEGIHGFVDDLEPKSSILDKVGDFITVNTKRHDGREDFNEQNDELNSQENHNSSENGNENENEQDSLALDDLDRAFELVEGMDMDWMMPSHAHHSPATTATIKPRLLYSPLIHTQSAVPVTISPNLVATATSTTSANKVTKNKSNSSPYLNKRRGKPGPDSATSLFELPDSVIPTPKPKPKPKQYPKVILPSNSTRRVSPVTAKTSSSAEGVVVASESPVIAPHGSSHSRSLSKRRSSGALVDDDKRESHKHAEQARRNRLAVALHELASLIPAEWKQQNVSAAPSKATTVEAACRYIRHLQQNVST
# Test: relative binding free energy (BET-seq); higher = weaker binding
# Settings: reference: library average
row,Sequence,relative binding free energy [kcal/mol]
1,GGTTTCACGTGAGCTG,0.4
2,TTGCTCACGTGTAGTA,0.26
3,TAATGCACGTGACGTT,-0.01
4,TGTGTCACGTGGGCGC,-0.08
5,ATTTTCACGTGAGAGG,0.46
6,GAGGGCACGTGGTACG,-0.08
7,AGGAGCACGTGTGCGA,-0.08
8,TTGTCCACGTGCGGGG,0
9,GCTGTCACGTGGAGGG,0.09
10,GTTCTCACGTGTGCTT,0.21
11,TGAAACACGTGGTGGA,-0.07
12,CATGTCACGTGGAGGT,0.16
13,GGTTTCACGTGGATAT,0.23
14,TAATACACGTGGTGGC,-0.11
15,GTCCTCACGTGGGTTG,0.04
16,TGATTCACGTGATGAG,0.41
17,CTGGTCACGTGTATAG,0.13
18,TATCACACGTGGATGG,0.08
19,GCTAGCACGTGTGTTT,-0.04
20,TTGTTCACGTGGCTTT,0.37
21,ATGTGCACGTGGTTAG,-0.16
22,TCGGGCACGTGATGGG,0.05
23,TGAGGCACGTGCGTGA,-0.13
24,GGGTTCACGTGCGTGG,0.23
25,GGGTACACGTGCGCGT,-0.04
26,ATACGCACGTGTGAAT,0.08

row,Sequence,relative binding free energy [kcal/mol]
1,TTGTACACGTGGGGCT,-0.12
2,TATATCACGTGTGTGC,0.16
3,GTGAGCACGTGTGAAT,0.08
4,TGTTTCACGTGCAGCT,0.24
5,TCGTGCACGTGCGTGA,-0.13
6,AAAGGCACGTGGGCAG,-0.28
7,GAGCGCACGTGTTTTT,0.03
8,AGAGACACGTGTATTT,0.1
9,CTTGGCACGTGTTATA,-0.12
10,TTTTTCACGTGATAAT,0.24
11,GGATACACGTGGCGTG,0.04
12,AGATTCACGTGGGGTT,0.21
13,ATAGGCACGTGTCGGC,-0.04
14,TTTTGCACGTGTCTTA,-0.02
15,TATGGCACGTGGGATT,-0.1
16,AAGTTCACGTGGTTAA,0.31
17,TTCTGCACGTGGAGGG,-0.04
18,CGGTACACGTGTGGTT,0.11
19,GAGGTCACGTGGCGAG,0
20,TGATACACGTGTGGGT,0.06
21,GTGGCCACGTGCGGGG,-0.1
22,GCTTGCACGTGACGGG,0.15
23,TAAGACACGTGGTAAT,0.12
24,CAATGCACGTGTGTGT,-0.03
25,TTGCACACGTGGTAGA,0.11
26,ATCGGCACGTGTGTGT,-0.06

row,Sequence,relative binding free energy [kcal/mol]
1,TGTTGCACGTGCGGTG,0.03
2,GGAGACACGTGTGTTG,0.01
3,AGGGTCACGTGATGCG,0.23
4,TGTGGCACGTGGGCCA,-0.32
5,ATCAACACGTGGGGTA,-0.12
6,TAAATCACGTGTTTAT,0.07
7,TAGGTCACGTGCTGTG,-0.03
8,ATGGACACGTGGGGGT,-0.15
9,AATCGCACGTGTAGTG,0.1
10,TGGAGCACGTGCTTTA,-0.06
11,GAAGTCACGTGAGATT,0.32
12,GAGGCCACGTGGATGT,0
13,TGTTACACGTGGCGTG,0.2
14,TAAAGCACGTGAAGGG,0.36
15,TCGATCACGTGAAGGT,0.33
16,TAAGTCACGTGCGGAT,0.11
17,ACAGGCACGTGATGGG,-0.06
18,TTGTTCACGTGTGTGA,0.29
19,GGCTTCACGTGTAGGA,0.23
20,TCGTTCACGTGTTATT,0.2
21,GTGTACACGTGTAAAG,0.23
22,AGATTCACGTGTATTG,0.05
23,GCGTTCACGTGCGGGT,0.33
24,GAAGCCACGTGTTGGG,-0.04
25,GGCAACACGTGGTGGT,-0.09
26,TGTGTCACGTGTTAAC,0.09

row,Sequence,relative binding free energy [kcal/mol]
1,CGGGACACGTGATAGT,0.21
2,TGGTCCACGTGTTTTG,0.05
3,TAAGGCACGTGGATAG,-0.14
4,GGGTCCACGTGAAGGC,0.41
5,ACTGTCACGTGGGTTG,-0.12
6,TATATCACGTGAGGAG,0.33
7,TAAATCACGTGGTGGA,0.18
8,TGGGTCACGTGGTGGC,0.09
9,ATTTTCACGTGGCAAG,0.25
10,TAGTGCACGTGTTTAG,0.02
11,AGGGTCACGTGGTTTT,0.23
12,TTAGACACGTGAGGTA,0.12
13,GTTATCACGTGGGTAT,0.14
14,CTGGACACGTGCGGTG,0
15,TGGGGCACGTGTTAGT,-0.05
16,ATTGTCACGTGACGTA,0.11
17,CAGGTCACGTGTAGCG,0.3
18,GAATGCACGTGAGGAG,0.34
19,GATTGCACGTGATGTT,0.25
20,AGAGCCACGTGGGGAG,-0.26
21,TATTACACGTGGTGCA,-0.06
22,AGGTACACGTGAAGTG,0.2
23,TGTGGCACGTGATGCG,0.07
24,TGATTCACGTGGAGGG,0.26
25,GTGGCCACGTGGTTCG,-0.02
26,ATTAGCACGTGATTCG,0.12

row,Sequence,relative binding free energy [kcal/mol]
1,AGCGGCACGTGAGAGT,0.18
2,AGGAACACGTGTTATT,-0.01
3,TCATGCACGTGGTGAG,-0.09
4,GTAAACACGTGAATGG,0.34
5,GTGAGCACGTGTGGGT,-0.08
6,TGTTACACGTGTTTGT,0.13
7,TAAAGCACGTGGGTTC,-0.07
8,TAGTGCACGTGATGTC,0.15
9,ATTATCACGTGTTTGA,0.16
10,CGTGCCACGTGGAGGT,-0.05
11,TGGATCACGTGGGGGT,0.09
12,TTTAACACGTGTGAGA,0.05
13,TGGGACACGTGGGACT,-0.15
14,GTGGTCACGTGCTGGA,0.18
15,TTTGGCACGTGTGTGA,0
16,GTTATCACGTGCTGAT,0.29
17,TTCGACACGTGTTGTA,0.12
18,TGGGACACGTGGCGGA,-0.03
19,TGTGTCACGTGTATAG,-0.05
20,AGGGGCACGTGTGCGG,-0.21
21,GTGAGCACGTGCAGGA,-0.13
22,CGTGTCACGTGCAAGT,0.13
23,TTGGGCACGTGTGCCT,-0.04
24,TTTGTCACGTGCTTAA,0.17
25,GGCTGCACGTGTGGAA,0.32
26,TGTGGCACGTGATTAC,0.1

row,Sequence,relative binding free energy [kcal/mol]
1,GGCGTCACGTGGCTTG,0.18
2,CGATGCACGTGTTGGG,-0.15
3,TTATGCACGTGACTGG,0.03
4,TAAGGCACGTGCGTAA,-0.09
5,CTTGGCACGTGGGGGC,-0.3
6,AATGGCACGTGACTGT,-0.06
7,CGAGCCACGTGGGGAG,-0.07
8,TAAAGCACGTGGCGGT,-0.16
9,CGTGTCACGTGAGTGG,0.27
10,GGGGTCACGTGTTATG,0.34
11,CGGGACACGTGTTGTG,-0.05
12,CTGTGCACGTGGTGGA,0.01
13,GTGGGCACGTGTGGGG,0
14,TGTAACACGTGTTGAT,-0.01
15,AGTATCACGTGTTGGC,0.15
16,GGGGGCACGTGGGTGT,-0.12
17,TGGGCCACGTGGGCAT,-0.2
18,GAATTCACGTGTCGGT,0.28
19,CTGGGCACGTGTGTTG,-0.04
20,AGATGCACGTGAAGGA,0.29
21,TGAGACACGTGGTTTG,-0.02
22,GGGGACACGTGAGAGA,0.33
23,TGAAACACGTGGCGGT,0.03
24,TCGGGCACGTGTTGTC,-0.02
25,GGAGACACGTGGTAGA,0.01
26,AGGTACACGTGCGATG,0.14

row,Sequence,relative binding free energy [kcal/mol]
1,AATATCACGTGATGGA,0.25
2,GCTGACACGTGTTTGT,-0.06
3,GGAGGCACGTGAGTTG,0.18
4,AGTTTCACGTGAGGTA,0.27
5,GTTAGCACGTGTAGCT,-0.01
6,GTTCGCACGTGAGTTG,0.1
7,GTGGACACGTGAACGT,0.29
8,GAGTTCACGTGCTGAG,0.31
9,TCGTTCACGTGGGAGT,0.13
10,TTAGCCACGTGTTTTG,0.02
11,TAAATCACGTGTAGGA,0.17
12,TCAGGCACGTGATTTT,0.03
13,ATAAACACGTGGGTAA,0
14,TGATGCACGTGGGCTG,-0.26
15,GGCGTCACGTGGAGTA,0.08
16,CTGTACACGTGGTAGG,-0.01
17,AGGGTCACGTGCTGAA,0.11
18,TTAAGCACGTGGGGCT,-0.15
19,GGAGTCACGTGTTAGA,0.25
20,GTCAACACGTGGTCGG,-0.02
21,TGTGGCACGTGGGATG,-0.22
22,ACGTGCACGTGTGGAG,0.04
23,GGGTGCACGTGCTAAG,-0.05
24,TGCTACACGTGGGGGC,-0.08
25,AGTATCACGTGTATGA,0.21
26,TTTAACACGTGGGGTC,-0.05

row,Sequence,relative binding free energy [kcal/mol]
1,TAGGGCACGTGGGAAA,-0.12
2,TTTTTCACGTGACAGG,0.28
3,GTAAGCACGTGAAGGG,0.23
4,AATCGCACGTGTAGGG,-0.02
5,GGGGGCACGTGCAAGC,-0.11
6,AACAGCACGTGGTGTG,-0.18
7,GTACGCACGTGGTTTT,0.03
8,GGTGTCACGTGGCGAT,0.09
9,TGGGTCACGTGACCTG,0.23
10,CTAATCACGTGTGGTG,-0.02
11,GAGTGCACGTGGTTCG,0
12,ATAGACACGTGTGGTA,0.01
13,CGAGTCACGTGAATGT,0.27
14,ATGTGCACGTGCGGTC,-0.02
15,CGAATCACGTGGTATT,0.17
16,GGGATCACGTGTAGCG,0.11
17,TTATGCACGTGCTGCG,-0.04
18,GGGATCACGTGATGGT,0.27
19,AAGAGCACGTGATAGT,0.17
20,AAGTTCACGTGGATAG,0.21
21,TGGTGCACGTGGGCTT,-0.11
22,AACTGCACGTGAGGGG,0.31
23,ACTCGCACGTGGGGTG,-0.41
24,GTCAGCACGTGACGGG,0.23
25,CATCTCACGTGGTGGT,0.16
26,CGGGTCACGTGATTTT,0.15

row,Sequence,relative binding free energy [kcal/mol]
1,GATGGCACGTGAGGAG,0.06
2,CGAGGCACGTGTCGGT,-0.02
3,GGGGTCACGTGAGCTT,0.42
4,GTGGACACGTGGGTAA,-0.11
5,TAAGGCACGTGGTGTG,-0.18
6,GGATGCACGTGATATT,0.25
7,TTGAGCACGTGTTCTT,0
8,CTGGTCACGTGGTTTC,0.16
9,TAGTTCACGTGCTAGG,0.24
10,AATGTCACGTGGGTTG,-0.02
11,CTGAGCACGTGGTGGA,-0.1
12,AGTGACACGTGATTCG,0.14
13,ATAGGCACGTGTTACG,-0.14
14,ACGGTCACGTGGGTGA,-0.09
15,TTAGCCACGTGTGTGT,-0.07
16,GGCGCCACGTGGGGCT,-0.18
17,GCTTACACGTGTGGGC,0.3
18,CTATGCACGTGTGGTT,0.12
19,GGTTGCACGTGGGGAA,0.01
20,GATTTCACGTGTGTGT,0.38
21,TGTTTCACGTGTTTAC,0.38
22,CGTGTCACGTGGGCAG,-0.07
